Source: PubChem BioAssay (Tox21)
The source made the active and inactive calls. Unless noted, calls come from the whole dose curve; as a rule, active = well fitted curve in the direction sought with a large enough effect in the repeat runs; inconclusive = weak or mixed curves; inactive = no such curve, though single readings can be large; an effect the other way counts as inactive or inconclusive.

How the values were obtained:
[1] = qHTS assay for small molecule agonists of the p53 signaling pathway (AID 651631; calls by dose curve; note: nearly all actives have a fitted effect of over 15% in size; note: potency is the fitted concentration of half-maximal effect; for activation: % is set by controls: 0 for no effect and ±100 for the full control effect); conditions: HCT-116 p53RE-bla reporter, beta-lactamase FRET ratio, 16 h; activation: at 73.3 µM (top of the series) unless noted
Outline: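 Fluorescence intensity from cleaved LiveBLAzer B/G substrate (2 h, room temperature) served as the signal. Beforehand, HCT-116 reporter cells bearing p53 response elements were treated 16 h at 37 °C with DMSO-dissolved compounds.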

[2] = qHTS assay for small molecule disruptors of the mitochondrial membrane potential (AID 720635); conditions: HepG2 mitochondrial membrane potential, Mito-MPS dye ratio; ratio activity, negative = MMP loss: at 83.2 µM (top of the series) unless noted; note: potency is the fitted concentration of half-maximal effect
Outline: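 HepG2 cells exposed to compound 1 hr at 37C, then Mito-MPS dye 30 min. Ratio read of aggregate (540/590 nm) versus monomer (490/535 nm) fluorescence.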

[3] = qHTS assay for identifying genotoxic compounds that show differential cytotoxicity against isogenic chicken DT40 cell lines with known DNA damage response pathways - Rev3 mutant cell line (AID 743014); conditions: chicken DT40 Rev3-/- viability, CellTiter-Glo, 40 h; activity, negative = cytotoxicity: at 68.4 µM (top of the series) unless noted; note: nearly all actives have a fitted effect of over 55% in size; note: potency is the fitted concentration of half-maximal effect
[4] = qHTS assay to identify small molecule antagonists of the thyroid receptor (TR) signaling pathway - cell viability counter screen (AID 743064); conditions: GH3.TRE-Luc viability, CellTiter-Fluor, 24 h; activity change, negative = cytotoxic: at 70.3 µM (top of the series) unless noted; note: nearly all actives have a fitted effect of over 50% in size; note: potency is the fitted concentration of half-maximal effect
Outline: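 Same-well viability check: GH3.TRE-Luc cells stimulated with 1 nM T3 alongside test compound for 23.5 h, followed by CellTiter-Fluor fluorescence.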

[5] = qHTS assay to identify small molecule antagonists of the thyroid receptor (TR) signaling pathway (AID 743065); note: potency is the fitted concentration of half-maximal effect; nearly all actives have a fitted effect of over 55% in size
Outline: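 GH3.TRE-Luc rat pituitary cells (two TREs driving luciferase) were dosed with compound, then stimulated with 1 nM T3 (final) for 23.5 h at 37 C. ONE-Glo luminescence was the read-out, with CellTiter-Fluor fluorescence as the cytotoxicity counter-screen.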

[6] = target: Estrogen receptor (Homo sapiens) (UniProt P03372); assay: qHTS assay to identify small molecule antagonists of the estrogen receptor alpha (ER-alpha) signaling pathway (AID 743069; active = well fitted curve in the direction sought with a large enough effect in the signal ratio in the repeat runs, not every such curve was filed as active; inconclusive = weak or mixed curves, or effect the other way; inactive = no such curve, though single readings can be large or run the other way; the % refers to the signal ratio; note: potency is the fitted concentration of half-maximal effect); conditions: HEK293 ER-alpha-UAS-bla, beta-lactamase ratio, antagonist mode; activity, negative = inhibition: at 69.4 µM (top of the series) unless noted
Chain of UniProt P03372 (P03372 whole entry, looked up): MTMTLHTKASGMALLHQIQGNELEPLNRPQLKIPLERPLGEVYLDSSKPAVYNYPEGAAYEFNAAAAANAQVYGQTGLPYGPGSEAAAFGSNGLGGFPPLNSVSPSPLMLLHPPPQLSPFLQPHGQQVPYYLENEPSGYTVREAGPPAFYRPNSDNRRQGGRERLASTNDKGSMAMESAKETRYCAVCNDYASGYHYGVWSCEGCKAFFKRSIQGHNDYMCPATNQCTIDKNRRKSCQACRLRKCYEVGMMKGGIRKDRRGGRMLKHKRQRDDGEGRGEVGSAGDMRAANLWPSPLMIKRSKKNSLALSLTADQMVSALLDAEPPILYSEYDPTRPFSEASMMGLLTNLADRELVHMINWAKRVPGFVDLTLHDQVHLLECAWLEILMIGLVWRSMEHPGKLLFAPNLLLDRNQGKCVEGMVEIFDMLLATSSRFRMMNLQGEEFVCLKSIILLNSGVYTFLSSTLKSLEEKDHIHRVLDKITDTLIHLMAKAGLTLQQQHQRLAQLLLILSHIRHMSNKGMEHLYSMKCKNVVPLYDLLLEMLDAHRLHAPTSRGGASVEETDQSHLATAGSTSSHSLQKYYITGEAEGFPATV
Outline: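 Reporter cells (ER-alpha-bla, HEK293 background) are conditioned overnight in stripped-serum medium (2% charcoal-stripped FBS). Compound and 17beta-estradiol exposure runs 18 hr at 37C, 5% CO2.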

Aromatase (Homo sapiens) = Aromatase (Homo sapiens) (UniProt P11511); assay: qHTS assay to identify aromatase inhibitors (AID 743083); note: potency is the fitted concentration of half-maximal effect; nearly all actives have a fitted effect of over 55% in size
Chain of UniProt P11511 (P11511 whole entry, looked up): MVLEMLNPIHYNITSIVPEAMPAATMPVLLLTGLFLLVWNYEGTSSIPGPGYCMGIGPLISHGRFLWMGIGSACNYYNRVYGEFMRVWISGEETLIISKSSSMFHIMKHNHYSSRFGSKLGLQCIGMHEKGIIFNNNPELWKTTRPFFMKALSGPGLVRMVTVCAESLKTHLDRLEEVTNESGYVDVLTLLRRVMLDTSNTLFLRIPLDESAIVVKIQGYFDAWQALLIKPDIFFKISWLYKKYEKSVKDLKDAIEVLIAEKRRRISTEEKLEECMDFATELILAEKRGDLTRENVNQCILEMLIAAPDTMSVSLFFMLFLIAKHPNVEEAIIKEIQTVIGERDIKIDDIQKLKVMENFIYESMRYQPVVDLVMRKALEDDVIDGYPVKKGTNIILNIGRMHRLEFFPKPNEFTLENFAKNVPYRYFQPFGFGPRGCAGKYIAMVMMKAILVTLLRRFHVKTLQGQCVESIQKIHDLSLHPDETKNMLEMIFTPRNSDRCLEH

[7] = target: Peroxisome proliferator-activated receptor gamma (Homo sapiens) (UniProt P37231); assay: qHTS assay to identify small molecule agonists of the peroxisome proliferator-activated receptor gamma (PPARg) signaling pathway (AID 743094; active = well fitted activation curve with a large enough effect in the signal ratio in the repeat runs, not every such curve was filed as active; inconclusive = weak or mixed curves, or effect the other way; inactive = no such curve, though single readings can be large or run the other way; the % refers to the signal ratio; note: potency is the fitted concentration of half-maximal effect); conditions: HEK293H PPARg-UAS-bla, beta-lactamase FRET ratio, 17 h; activation: at 57 µM (top of the series) unless noted
Chain of UniProt P37231 (P37231 whole entry, looked up): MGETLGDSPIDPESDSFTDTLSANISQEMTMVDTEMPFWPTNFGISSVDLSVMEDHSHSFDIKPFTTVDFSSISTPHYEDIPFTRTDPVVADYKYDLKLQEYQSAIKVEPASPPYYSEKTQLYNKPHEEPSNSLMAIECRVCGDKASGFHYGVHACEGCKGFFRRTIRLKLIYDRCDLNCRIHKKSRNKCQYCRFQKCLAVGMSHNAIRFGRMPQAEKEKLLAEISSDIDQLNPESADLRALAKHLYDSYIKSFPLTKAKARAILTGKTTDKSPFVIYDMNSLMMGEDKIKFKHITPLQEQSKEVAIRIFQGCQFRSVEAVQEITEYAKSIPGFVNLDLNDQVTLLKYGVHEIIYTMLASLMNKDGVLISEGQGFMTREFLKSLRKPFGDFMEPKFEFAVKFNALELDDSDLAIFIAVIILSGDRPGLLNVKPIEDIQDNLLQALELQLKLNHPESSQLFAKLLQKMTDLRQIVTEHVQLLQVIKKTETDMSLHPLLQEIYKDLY
Outline: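 Quantitative HTS agonist mode: stable HEK293H line with UAS-beta-lactamase reporter under PPARg control, 17 h compound exposure at 37C, fluorescence after 1 h FRET substrate loading at room temperature.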

[8] = qHTS assay to identify small molecule antagonists of the glucocorticoid receptor (GR) signaling pathway - cell viability counter screen (AID 720693); conditions: GR-bla HeLa viability, CellTiter-Glo luminescence, 18 h, with 5 nM dexamethasone present; viability change, negative = cytotoxic: at 58.5 µM (top of the series); note: nearly all actives have a fitted effect of over 55% in size; note: potency is the fitted concentration of half-maximal effect
[9] = qHTS assay to identify small molecule antagonists of the androgen receptor (AR) signaling pathway - cell viability counter screen (AID 743033; note: potency is the fitted concentration of half-maximal effect; nearly all actives have a fitted effect of over 45% in size); conditions: AR-bla HEK293 viability, CellTiter-Glo luminescence, 16 h; activity change, negative = cytotoxicity: at 58.5 µM (top of the series) unless noted
[10] = qHTS assay to identify small molecule antagonists of the androgen receptor (AR) signaling pathway using the MDA cell line - cell viability counter screen (AID 743041; note: nearly all actives have a fitted effect of over 45% in size; note: potency is the fitted concentration of half-maximal effect); conditions: MDA-kb2 viability, CellTiter-Fluor, 16 h, cells co-treated with R1881 androgen agonist; viability change, negative = cytotoxic: at 70.3 µM (top of the series)
Outline: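 Same-well cytotoxicity was assessed by CellTiter-Fluor in MDA-kb2 AR-luc cells after 16 h of compound treatment under R1881 agonism.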

[11] = system: thyroid hormone receptor (rat, GH3 cells); assay: qHTS assay to identify small molecule agonists of the thyroid receptor (TR) signaling pathway (AID 743066; calls by dose curve; note: % is set by controls: 0 for no effect and ±100 for the full control effect); conditions: GH3.TRE-Luc cells, TR agonist luciferase, 24 h; activation: at 83.9 µM (top of the series) unless noted
[12] = target: Estrogen receptor (Homo sapiens) (UniProt P03372); assay: qHTS assay to identify small molecule agonists of the estrogen receptor alpha (ER-alpha) signaling pathway (AID 743075; calls by dose curve;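 note: HEK293 GripTite cells with ER-alpha and UAS-driven beta-lactamase reporter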; note: potency is the fitted concentration of half-maximal effect); conditions: HEK293 ER-alpha-UAS-bla, beta-lactamase FRET ratio, 18 h; activation: at 70.1 µM (top of the series)
[13] = target: Estrogen receptor (Homo sapiens) (UniProt P03372); assay: qHTS assay to identify small molecule agonists of the estrogen receptor alpha (ER-alpha) signaling pathway using the BG1 cell line (AID 743079); conditions: BG1Luc4E2 cells, ERE-luciferase agonist, 22 h; activation: at 70.3 µM (top of the series) unless noted; note: % is set by controls: 0 for no effect and ±100 for the full control effect; nearly all actives have a fitted effect of over 20% in size
[14] = qHTS assay to identify small molecule antagonists of the estrogen receptor alpha (ER-alpha) signaling pathway using the BG1 cell line (AID 743080; calls by dose curve;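 note: BG1 cells stimulated with 17beta-estradiol alongside compound; nearly all actives have a fitted effect of over 25% in size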; note: potency is the fitted concentration of half-maximal effect); conditions: BG1Luc4E2 ERE-luciferase antagonist mode, luminescence; activity change, negative = inhibition: at 70.3 µM (top of the series) unless noted
Outline: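 BG1-Luc-4E2 cells (endogenous full-length ER-alpha, 4xERE luciferase) hormone-starved 5 days in charcoal-stripped FBS, plated 4,000/well for 24 h, then compound plus 17beta-estradiol for 21.5 h at 37 C; ONE-Glo luminescence read.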

[15] = qHTS assay to identify small molecule antagonists of the estrogen receptor alpha (ER-alpha) signaling pathway using the BG1 cell line - cell viability counter screen (AID 743081); conditions: BG1Luc4E2 viability, CellTiter-Fluor, 22 h; activity change, negative = cytotoxicity: at 70.3 µM (top of the series) unless noted;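 note: compound given together with 17beta-estradiol as the ER stimulus; nearly all actives have a fitted effect of over 45% in size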; note: potency is the fitted concentration of half-maximal effect
[16] = qHTS assay to identify aromatase inhibitors - cell viability counter screen (AID 743084); conditions: MCF-7 aro ERE viability, CellTiter-Fluor, 24 h; activity change, negative = cytotoxicity: at 70.3 µM (top of the series) unless noted; note: potency is the fitted concentration of half-maximal effect
[17] = target: Glucocorticoid receptor (Homo sapiens) (UniProt P04150); assay: qHTS assay to identify small molecule antagonists of the glucocorticoid receptor (GR) signaling pathway (AID 720692; active = well fitted inhibition curve with a large enough effect in the signal ratio in the repeat runs, not every such curve was filed as active; inconclusive = weak or mixed curves, or effect the other way; inactive = no such curve, though single readings can be large or run the other way; the % refers to the signal ratio; note: % is set by controls: 0 for no effect and ±100 for the full control effect); conditions: GR-bla HeLa, beta-lactamase FRET ratio, dexamethasone-stimulated, 18 h; activity change, negative = inhibition: at 58.5 µM (top of the series) unless noted
Chain of UniProt P04150 (P04150 whole entry, looked up): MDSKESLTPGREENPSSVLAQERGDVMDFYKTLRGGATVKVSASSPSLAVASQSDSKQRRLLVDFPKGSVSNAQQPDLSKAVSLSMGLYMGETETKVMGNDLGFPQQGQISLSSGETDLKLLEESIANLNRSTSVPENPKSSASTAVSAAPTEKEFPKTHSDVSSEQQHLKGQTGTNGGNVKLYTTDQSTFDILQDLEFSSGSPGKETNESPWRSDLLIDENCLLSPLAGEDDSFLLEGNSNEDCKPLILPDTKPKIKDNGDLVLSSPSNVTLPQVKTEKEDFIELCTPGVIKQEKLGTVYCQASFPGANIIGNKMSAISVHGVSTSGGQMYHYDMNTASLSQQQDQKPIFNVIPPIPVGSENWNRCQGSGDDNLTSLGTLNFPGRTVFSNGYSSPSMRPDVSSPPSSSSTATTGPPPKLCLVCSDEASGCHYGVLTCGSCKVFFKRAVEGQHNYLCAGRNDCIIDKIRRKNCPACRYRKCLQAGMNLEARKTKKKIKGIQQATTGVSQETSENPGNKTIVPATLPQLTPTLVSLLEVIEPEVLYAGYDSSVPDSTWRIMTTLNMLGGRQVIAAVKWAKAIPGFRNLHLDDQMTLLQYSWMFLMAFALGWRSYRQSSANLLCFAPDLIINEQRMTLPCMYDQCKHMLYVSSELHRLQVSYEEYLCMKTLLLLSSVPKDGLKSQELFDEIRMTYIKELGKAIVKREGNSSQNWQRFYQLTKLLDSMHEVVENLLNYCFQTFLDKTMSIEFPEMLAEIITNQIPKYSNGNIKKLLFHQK
Outline: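 Cells plated, rested 4 h at 37 C/5% CO2; compounds in DMSO pin-transferred; dexamethasone added to 5 nM final; 18 h at 37 C; B/G FRET substrate added, 2 h room temperature; fluorescence measured.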

[18] = target: Aryl hydrocarbon receptor (Homo sapiens) (UniProt P35869); assay: qHTS assay to identify small molecule that activate the aryl hydrocarbon receptor (AhR) signaling pathway (AID 743085); note: nearly all actives have a fitted effect of over 15% in size; note: potency is the fitted concentration of half-maximal effect
Chain of UniProt P35869 (P35869 whole entry, looked up): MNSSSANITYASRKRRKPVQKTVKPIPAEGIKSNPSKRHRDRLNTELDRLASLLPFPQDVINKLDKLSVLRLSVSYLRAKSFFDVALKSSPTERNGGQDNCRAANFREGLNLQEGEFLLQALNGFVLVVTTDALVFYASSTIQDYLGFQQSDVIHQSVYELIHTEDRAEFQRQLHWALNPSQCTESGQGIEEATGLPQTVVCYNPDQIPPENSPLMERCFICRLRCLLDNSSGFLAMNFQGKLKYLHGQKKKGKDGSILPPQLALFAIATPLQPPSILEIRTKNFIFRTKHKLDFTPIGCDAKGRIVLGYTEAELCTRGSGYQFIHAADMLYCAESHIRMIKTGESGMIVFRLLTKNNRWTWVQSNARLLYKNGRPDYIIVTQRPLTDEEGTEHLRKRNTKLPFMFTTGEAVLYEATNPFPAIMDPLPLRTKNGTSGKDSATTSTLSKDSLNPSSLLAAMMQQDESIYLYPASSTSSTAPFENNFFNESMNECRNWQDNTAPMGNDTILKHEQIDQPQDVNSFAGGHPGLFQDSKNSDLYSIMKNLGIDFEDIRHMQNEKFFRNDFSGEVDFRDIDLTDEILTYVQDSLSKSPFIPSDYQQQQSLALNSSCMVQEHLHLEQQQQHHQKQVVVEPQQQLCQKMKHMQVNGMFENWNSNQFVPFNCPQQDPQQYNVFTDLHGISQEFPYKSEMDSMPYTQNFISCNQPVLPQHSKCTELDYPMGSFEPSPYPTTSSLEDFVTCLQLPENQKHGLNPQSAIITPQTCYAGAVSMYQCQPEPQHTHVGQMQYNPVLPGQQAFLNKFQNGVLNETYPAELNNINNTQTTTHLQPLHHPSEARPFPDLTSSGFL
Outline: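 Reporter assay in engineered HepG2 line HG2L7.5c1, whose plasmid carries twenty dioxin responsive elements upstream of firefly luciferase. Treatment lasted 24 h at 37C; ONE-Glo luminescence gauged induction.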

[19] = qHTS assay to identify small molecule that activate the aryl hydrocarbon receptor (AhR) signaling pathway - cell viability counter screen (AID 743086); note: potency is the fitted concentration of half-maximal effect; nearly all actives have a fitted effect of over 45% in size
Outline: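 HepG2-AhR-luc (HG2L7.5c1) cells, 4000/well, treated 24 h at 37 C with compound; viability measured as CellTiter-Fluor fluorescence after 30 min in the same wells as the luciferase read.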

[20] = qHTS assay for identifying genotoxic compounds that show differential cytotoxicity against isogenic chicken DT40 cell lines with known DNA damage response pathways - wild type cell line (AID 743012); conditions: DT40 wild type chicken cells viability, CellTiter-Glo, 40 h; activity change, negative = cytotoxicity: at 68.4 µM (top of the series) unless noted; note: potency is the fitted concentration of half-maximal effect; nearly all actives have a fitted effect of over 60% in size
Outline: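 Cells (DT40 wild type, 300/well) are treated with DMSO-dissolved compounds after a ~0.5 h pre-incubation and kept 40 h at 37 C/5% CO2. Viability is then measured by CellTiter-Glo luminescence following 30 min at room temperature.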

[21] = target: Androgen receptor (Homo sapiens) (UniProt P10275); assay: qHTS assay to identify small molecule antagonists of the androgen receptor (AR) signaling pathway (AID 743035; active = well fitted inhibition curve with a large enough effect in the signal ratio in the repeat runs, not every such curve was filed as active; inconclusive = weak or mixed curves, or effect the other way; inactive = no such curve, though single readings can be large or run the other way; the % refers to the signal ratio; note: % is set by controls: 0 for no effect and ±100 for the full control effect); conditions: HEK293 AR-UAS-bla, R1881-stimulated, beta-lactamase FRET, 16 h; activity change, negative = inhibition: at 58.5 µM (top of the series) unless noted
Chain of UniProt P10275 (P10275 whole entry, looked up): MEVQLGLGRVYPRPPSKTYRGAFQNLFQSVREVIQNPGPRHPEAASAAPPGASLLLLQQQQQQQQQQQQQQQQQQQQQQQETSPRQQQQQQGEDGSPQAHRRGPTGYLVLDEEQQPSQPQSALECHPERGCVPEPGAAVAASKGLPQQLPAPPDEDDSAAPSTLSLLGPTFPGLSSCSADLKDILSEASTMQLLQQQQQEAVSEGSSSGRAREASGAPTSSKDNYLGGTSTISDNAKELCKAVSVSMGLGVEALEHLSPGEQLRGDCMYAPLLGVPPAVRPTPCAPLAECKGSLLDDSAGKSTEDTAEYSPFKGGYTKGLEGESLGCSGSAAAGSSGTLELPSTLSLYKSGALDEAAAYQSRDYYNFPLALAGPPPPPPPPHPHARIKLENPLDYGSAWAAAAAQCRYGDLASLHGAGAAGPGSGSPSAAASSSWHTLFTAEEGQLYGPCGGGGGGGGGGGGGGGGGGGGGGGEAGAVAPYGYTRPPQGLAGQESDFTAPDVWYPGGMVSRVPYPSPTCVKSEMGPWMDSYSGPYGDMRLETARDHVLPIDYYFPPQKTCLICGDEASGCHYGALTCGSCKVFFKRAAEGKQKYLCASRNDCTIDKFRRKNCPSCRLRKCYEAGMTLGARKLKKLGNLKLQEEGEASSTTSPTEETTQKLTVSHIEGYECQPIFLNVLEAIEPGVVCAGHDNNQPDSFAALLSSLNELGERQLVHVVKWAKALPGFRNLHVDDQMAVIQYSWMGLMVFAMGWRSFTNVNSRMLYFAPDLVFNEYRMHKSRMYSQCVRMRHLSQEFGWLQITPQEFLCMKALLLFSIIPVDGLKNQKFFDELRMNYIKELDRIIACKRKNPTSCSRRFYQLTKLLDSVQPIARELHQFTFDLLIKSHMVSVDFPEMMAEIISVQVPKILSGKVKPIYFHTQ
Outline: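 Antagonism is scored as loss of R1881-driven beta-lactamase reporter expression in HEK293 cells carrying the reporter under a UAS element, after 16 h co-treatment at 37C and a 2 h room-temperature FRET substrate read.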

[22] = qHTS assay to identify small molecule antagonists of the estrogen receptor alpha (ER-alpha) signaling pathway - cell viability counter screen (AID 743074; calls by dose curve; note: potency is the fitted concentration of half-maximal effect)
Tags give direction and shape of the fitted curve or compound fluorescence and quenching.

CC(C(=O)O)c1ccc(C2CCCCC2)c2ccccc12 (stereo unspecified)
inconclusive: Potency [2] 29.8 µM [rising, partial curve, poor fit] | Potency [5] 23.7 µM [inhibitor, partial curve, poor fit] | Potency (Aromatase (Homo sapiens)) 4.73 µM [inhibitor, partial curve, poor fit] | Potency [7] 13.4 µM [inhibitor]
inactive: Potency [1] | Potency [3] | Potency [4] | Potency [6]

C[C@@H]1CCC2[C@@H](C)[C@@H](O)O[C@@H]3O[C@@]4(C)CC[C@@H]1[C@@]23OO4 (stereo partly specified)
active: Potency [3] 0.133 µM | Potency [4] 2.11 µM | Potency [6] 9.52 µM [inconclusive]
inactive: Potency [2] | Potency [13] | Potency [14]
inconclusive: Potency [1] 7.5 µM [activator, partial curve] | Potency [8] 26.8 µM [cytotoxic, single point] | Potency [9] 0.425 µM [cytotoxic, full curve, poor fit] | Potency [10] 4.95 µM [cytotoxic, full curve] | activation [11] -7.1% [phenotype inactive] | Potency [12] 15.1 µM [rising, partial curve] | Potency [15] 15 µM [cytotoxic, full curve] | Potency (Aromatase (Homo sapiens)) 1.68 µM [inhibitor, partial curve, poor fit] | Potency [16] 11.9 µM [cytotoxic, full curve] | activation [7] -14.5%

C=CC1=C(C)C2=CC3=NC(=C(CC(=O)[O-])C4=NC(=C(C)C4=C([O-])[O-])C=c4[n-]c(c(C)c4CC)=CC1=N2)C(CCC(=O)[O-])C3C.[Cu+2].[Na+].[Na+].[Na+] (stereo unspecified)
inconclusive: Potency [1] 33.5 µM [cytotoxic, partial curve] | Potency [2] 11.9 µM [cytotoxic, partial curve] | activity change, negative = inhibition [17] -9.52% | Potency [5] 26.6 µM [inhibitor, partial curve] | Potency [14] 18.8 µM [falling, partial curve, poor fit] | Potency [18] 21.1 µM [activator, partial curve]
inactive: Potency [7]
active: Potency [4] 26.6 µM | Potency [15] 29.8 µM | Potency [16] 23.7 µM | Potency [19] 23.7 µM

NC(=O)OC[C@@H]1[C@H](NC(=O)/C(=N\OCC(=O)O)c2csc(N)n2)C(=O)N1S(=O)(=O)O
inactive: Potency [2] | Potency [17] | Potency [10]
inconclusive: activation [1] 3.04% | Potency [20] 29.8 µM [rising, partial curve, poor fit] | Potency [3] 29.8 µM [rising, partial curve, poor fit]

CC(O)[C@@H]1NC(=O)[C@H](Cc2ccccc2)NC(=O)[C@H](C(C)O)NC(=O)[C@H](CCCCN)NC(=O)[C@H](Cc2c[nH]c3ccccc23)NC(=O)[C@H](Cc2ccccc2)NC(=O)[C@H](Cc2ccccc2)NC(=O)[C@H](CC(N)=O)NC(=O)[C@H](CCCCN)NC(=O)[C@@H](NC(=O)CNC(=O)[C@H](C)N)CSSC[C@@H](C(=O)O)NC(=O)[C@H](CO)NC1=O (stereo partly specified)
inconclusive: Potency [1] 1.19 µM [activator, single point]
inactive: Potency [2] | Potency [3] | Potency [16]

CC1(C)S[C@@H]2[C@H](NC(=O)C(N)c3ccccc3)C(=O)N2[C@H]1C(=O)OC1OC(=O)c2ccccc21 (stereo partly specified)
inconclusive: activation [1] 4.92% [at 34.7 µM] | ratio activity, negative = MMP loss [2] 10.9% [at 39.1 µM] | Potency [9] 0.0018 µM [cytotoxic, full curve, poor fit]

O=P(O)(O)OP(=O)(O)OP(=O)(O)O
inactive: Potency [1] | Potency [2] | Potency [21] | Potency [22] | Potency [14]
inconclusive: Potency [9] 0.0027 µM [cytotoxic, full curve, poor fit]

CC(=O)N[C@@H](CC(=O)N[C@@H](CCC(=O)O)C(=O)O)C(=O)O
inconclusive: Potency [1] 33.5 µM [activator, partial curve, poor fit] | Potency [6] 26.8 µM [activator, partial curve, poor fit]
inactive: Potency [2] | Potency [13]

COC(=O)CC[C@H](N)C(=O)O
inactive: Potency [22] | Potency [12] | Potency [18]
inconclusive: Potency [1] 0.106 µM [activator, single point] | ratio activity, negative = MMP loss [2] -9.55%

Cc1onc(-c2ccccc2)c1C(=O)N[C@@H]1C(=O)N2[C@@H]1SC(C)(C)[C@@H]2C(=O)O
inactive: Potency [1] | Potency [17] | Potency [8] | Potency [3] | Potency [6] | Potency [13] | Potency [15]
inconclusive: Potency [22] 10.7 µM [cytotoxic, single point]
